# From the BET-seq Pho4 binding data (Le et al. 2018)
# This is one part of the list. Values were computed here from the reads of four pooled replicates and scatter widely.
# Biological target: T1, Pho4 (S. cerevisiae) (UniProt P07270)
# T1 sequence: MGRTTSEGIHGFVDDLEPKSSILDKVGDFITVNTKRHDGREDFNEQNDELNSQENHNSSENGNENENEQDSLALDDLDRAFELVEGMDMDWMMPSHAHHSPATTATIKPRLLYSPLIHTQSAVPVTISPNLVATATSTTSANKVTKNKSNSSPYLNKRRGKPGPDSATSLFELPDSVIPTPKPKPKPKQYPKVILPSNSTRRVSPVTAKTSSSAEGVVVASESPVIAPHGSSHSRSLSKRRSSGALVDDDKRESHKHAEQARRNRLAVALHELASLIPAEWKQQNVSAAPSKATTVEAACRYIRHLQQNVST
# Experiment: relative binding free energy (BET-seq); higher = weaker binding
# Settings: reference: library average
row,Sequence,relative binding free energy [kcal/mol]
1,AAAATCACGTGGTGGA,0.03
2,GAGCGCACGTGGGGTT,-0.27
3,CGGCCCACGTGGGGGC,-0.15
4,GTGAGCACGTGTCTGG,-0.19
5,TTGACCACGTGGTAGG,-0.06
6,GGTAACACGTGTTTGA,-0.02
7,TTTCTCACGTGGTGTG,0.11
8,TGAGGCACGTGGGAAA,-0.07
9,TATAGCACGTGTGGCT,-0.04
10,AAGTGCACGTGGGGCA,-0.22
11,AGGAGCACGTGGCTGT,-0.2
12,TGGGACACGTGTGCTG,0.01
13,TACATCACGTGTGGTT,0.21
14,ATGGTCACGTGTTCTT,0.23
15,TGGGACACGTGTTTTA,0.01
16,CGTCTCACGTGTCGGG,0.32
17,TGGGACACGTGTGCAT,0.1
18,CTTTTCACGTGAGGGA,0.24
19,TTTTTCACGTGGGTCT,0.13
20,TGTGGCACGTGAGAGT,0.18
21,TATTGCACGTGTGCTA,-0.05
22,GTCAGCACGTGGGTAA,-0.04
23,AGCGTCACGTGAAGGT,0.18
24,TGGCGCACGTGAAGAT,0.19
25,GGATACACGTGTGTAG,-0.01

row,Sequence,relative binding free energy [kcal/mol]
1,CTTGACACGTGGGTAA,-0.08
2,ACGGGCACGTGGGACG,-0.24
3,GGAGCCACGTGGGGTT,-0.31
4,TGCTACACGTGCGTGG,-0.03
5,AGTTACACGTGTCTTA,0.21
6,CGTGACACGTGGTGTT,-0.07
7,GTGGCCACGTGTTGAA,-0.01
8,AGTATCACGTGATGGG,0.19
9,CGTGGCACGTGTGATG,-0.02
10,GGGTGCACGTGCTTAA,0.04
11,ATGGGCACGTGGGAAG,-0.15
12,TTGATCACGTGGTCGA,0.13
13,GTCGTCACGTGGTCGG,0.03
14,TATGACACGTGGGTGA,-0.11
15,TTATGCACGTGGATAA,-0.07
16,GTTGGCACGTGGGAAC,-0.01
17,TGGTGCACGTGTGAGC,0
18,TTAGGCACGTGCGCGG,-0.16
19,TGGGCCACGTGTGAAG,-0.01
20,GGATTCACGTGGGGGG,0.14
21,CGGATCACGTGTAGGG,0.21
22,TGGTTCACGTGGGGAC,0.19
23,TTTAGCACGTGTGGGA,-0.09
24,TTATTCACGTGCGGGG,0.23
25,CTTGGCACGTGTAGAT,0.1

row,Sequence,relative binding free energy [kcal/mol]
1,TTGAGCACGTGGAGTA,-0.09
2,GTGGGCACGTGCATGT,-0.08
3,CGTTACACGTGGGATG,-0.11
4,ATGTTCACGTGTTATG,0.32
5,TGAGACACGTGGGACG,-0.09
6,CGCAGCACGTGGGTGT,-0.39
7,CGTTTCACGTGTACGT,0.18
8,TTGTTCACGTGGAGTC,0.4
9,GAGTACACGTGTGCGG,0.15
10,GTTAACACGTGGGCTG,-0.08
11,TCGGTCACGTGGCGGG,0.1
12,GATATCACGTGAAGGT,0.39
13,GCAGGCACGTGGTGGA,-0.13
14,TGGATCACGTGACTGG,0.28
15,TGGAGCACGTGGGGAT,-0.15
16,AGTTTCACGTGGGGTA,0.08
17,TGGCACACGTGGCGTG,-0.08
18,TCATGCACGTGGGCTT,-0.17
19,GATTTCACGTGGGATT,0.34
20,GTGGTCACGTGGAATC,0.25
21,TGAGTCACGTGGGAAA,-0.02
22,AGTGACACGTGCAGGA,0.06
23,GAGTTCACGTGTAGTC,0.48
24,TAATGCACGTGTTATT,0.04
25,ACAGTCACGTGTTTGG,-0.13

row,Sequence,relative binding free energy [kcal/mol]
1,CAGATCACGTGTTGGT,0.11
2,ATGAGCACGTGTTTGG,-0.06
3,AGCATCACGTGTTATG,0.18
4,GGTGTCACGTGGGACT,0.05
5,TGCAGCACGTGTGTCG,0
6,TGGGACACGTGTAGGA,0.1
7,TCATTCACGTGGGGTC,-0.01
8,TTGAACACGTGTTAAG,0.08
9,ATATGCACGTGGTGCA,-0.1
10,AAATTCACGTGGATAT,0.33
11,ACGTGCACGTGCGGGG,-0.11
12,TGGGACACGTGCTATG,-0.06
13,TGAAGCACGTGGATTT,0.06
14,AGATACACGTGGGATG,-0.03
15,TGTATCACGTGGATAG,0.16
16,ATTTTCACGTGTTTCT,0.22
17,AGTATCACGTGTGGAT,0.19
18,GTAATCACGTGTCGTG,0.17
19,TACTGCACGTGATGTT,0.04
20,TATGCCACGTGAGGGA,0.1
21,TATTACACGTGTCGTT,0.07
22,AGAAGCACGTGAGAGG,0.13
23,AGGGTCACGTGGTGTC,0.07
24,ATAGACACGTGAAGGT,0.2
25,TTGTACACGTGATGCA,0.07

row,Sequence,relative binding free energy [kcal/mol]
1,TCGTTCACGTGTATCT,0.36
2,TTGGACACGTGTTGAA,0.11
3,GAGGTCACGTGTACGT,0.2
4,GTGTGCACGTGATTAT,0.13
5,ATTAACACGTGGATGT,-0.1
6,AGCATCACGTGGTTGT,0.08
7,GTTAACACGTGAATTT,0.31
8,TGTGGCACGTGGATCG,-0.17
9,GAGGCCACGTGTCGGT,0.1
10,GAAGTCACGTGCTTTG,0.07
11,TACATCACGTGGGTGT,-0.03
12,TGTAACACGTGGCTGT,-0.12
13,ACAGGCACGTGAGGGT,0.12
14,TGGGGCACGTGTTGGA,0
15,TTGAGCACGTGGCTTT,-0.16
16,GGGGACACGTGGAATG,0.02
17,GCGCGCACGTGAGGTG,0.12
18,GGGTTCACGTGGCAAA,0.34
19,GAGAGCACGTGGTGGC,-0.12
20,TGCGACACGTGTAGTT,0.05
21,TCGTACACGTGTGATG,0.18
22,GGTAGCACGTGATTGG,0.07
23,GTTTGCACGTGTCCGA,0.11
24,TTGGACACGTGTAATG,0.14
25,GGGGGCACGTGGTCAT,-0.22

row,Sequence,relative binding free energy [kcal/mol]
1,ATTGGCACGTGTTTTT,-0.17
2,AGGGACACGTGTGTCG,0
3,ATTATCACGTGTTGAT,0.2
4,ATGGGCACGTGGGGTC,-0.22
5,TGTTGCACGTGTTTAC,-0.07
6,CTTGGCACGTGGCGTA,-0.29
7,CGGAGCACGTGATGTG,0.02
8,ATGTACACGTGCAGGT,-0.05
9,TGGATCACGTGTAGGT,0.19
10,AATGGCACGTGGATAT,-0.07
11,GTGTACACGTGATTTA,0.08
12,GTTATCACGTGTGTCA,0.13
13,ATGGGCACGTGGCTTG,-0.34
14,TTTCTCACGTGGGCGT,0.14
15,TTAGACACGTGAGAGG,0.19
16,TCCTTCACGTGGTTGG,0.13
17,GATATCACGTGTCTTG,0.28
18,GTCATCACGTGTAGGG,0.13
19,AGGCACACGTGGTGTA,-0.03
20,TTGTCCACGTGGTGTC,-0.04
21,GGTGGCACGTGGCCGC,-0.11
